# Measured values published in the supplement of paper PMC11417369.
# Some of the results follow.
# Test system: PF3D7_0420300 AP2 domain 1 (GST-tagged)
# Test: gcPBM binding intensity (ln(normalized median fluorescence intensity)); higher = stronger DNA binding
# Procedure, shortened: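 Binding of GST-tagged P. falciparum DNA-binding domains, expressed in E. coli and used at about 25 μg on average, was carried out for 1 h in 1× PBS containing 1% milk, 0.2 mg/ml BSA, 0.5% salmon testes DNA and 0.03% Triton X-100. The target was an Agilent 4 × 180k array of primer-extended double-stranded 36-bp intergenic genomic probes plus negative controls, read with Alexa488 anti-GST antibody at 488 nm. Binding intensity is the highest Masliner-normalised natural-log median intensity across replicate spots of either probe orientation.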
row,Sequence,gcPBM binding intensity (ln)
1,CGCACAAAAATATACACACACACATATATATTTATT [CACACA_site3645],10.2
2,TATTCAACATAATATGCACACAAAAATTATGGAACG [CACACA_site8660],9.6
3,TTTAATTTTTTTTAAACACACACATTACATTCAAAA [CACACA_site7926],9.33
4,AATATATAATTTTATAGTACATAATAAAAGAACAGG [XGTACX_site724],9.47
5,TTATATTATGCTTGAATGCACTTTGAAGCACAATCT [GTGCAC_site9789],9.03
6,ATCACATAAAATATGAATATATATTTTATATATATA [CACACA_negctrl_site340],9.08
7,TTAAAAAAAAAAAGGTGTACTATAATTTAATATCAC [XGTACX_site6316],9.28
8,TATATTTACGTATGTCGAACGTTATTTTGAACAACC [CACACA_negctrl_site1261],9.21
9,TTTTTTTATTAAAAATGTACAAAAATGAAAAAATAA [XGTACX_site8279],8.99
10,CATATAATTTTATGGGTGCATTTTTTTGTAAGACCA,9.16
11,TTTTAAACAAAAATTTGTACACAATAATTAAATATA [XGTACX_site6755],9.01
12,ATTTAATTTTTTTTTTTTTTTTTTCAATCCCCTTTT [CACACA_negctrl_site1013],8.91
13,CATTTTAAAGAAAATACACACAAAAATAAATATATA [CACACA_site1395],9.54
14,ACACAAAAAATAAAAATATATATATATTATATATAT [CACACA_negctrl_site1489],9.24
15,TAATAATAAATTGGTTGTACAACCTTATACAGAATA [XGTACX_site2592],9.17
16,TAAAAAAATATATATACATGCATAGAAAAAAAAAAA [TGCATGCA_site552],9.33
17,TTACTTTTAACAAATGTGCGCAGTTATCACACAGAC,9.23
18,TATATTTTGTTCTGTTGTACTAAAAAAATCTTTATA [XGTACX_site8372],9.12
19,ACAAAACAAAAAAACTCACACATATACGGCATGTCA [CACACA_site5608],9.79
20,ATTTATTTATTTATATGTACATATTTAAAGAGTTCA [XGTACX_site7631],9.08
21,ATATATATATATATATGTACTAAGAATTCTTTAAAA [XGTACX_site8476],9.14
22,TATACATATGAAAATACACACATACATACATATATA [CACACA_site8484],9.85
23,ATTATACATATATAAGTGCAATAATGTTTTTTCCTT,9.36

row,Sequence,gcPBM binding intensity (ln)
1,AAGGTATATATAACTACACACTTATATATAATCTAA [CACACA_site92],9.45
2,ATTTTCCAAAATAATTGTACAGGAAAGAAATAATTA [XGTACX_site7424],9.18
3,AACAGACAGAAACACACACACATATATATATATATA [CACACA_site3394],9.81
4,TAATAAAATATGTACACACATACACCCATATATATA [CACACA_site1220],9.71
5,TGTAGTCTGGAGAAAAGTACATAGTATCTGGTAACC [XGTACX_site2025],9.19
6,AGGAACAAAATATACTGTACTTTATTATTTTCAAAA [XGTACX_site4421],9.17
7,ATACATATTTTACATTCACACAACAAATTTATATTT [CACACA_site4700],9.34
8,ATATATTTTAATTGATGTACTTTTTTATGTTAATGA [XGTACX_site4316],9.1
9,TGGGTAAACAGACACACACACATATAGATTTATATA [CACACA_site7026],9.9
10,ACACACATATATACATGTACATATATATATATATAT [XGTACX_site451],9.56
11,CTTCCAATAAAAAATGCACACATTGAAAATATTGAA [CACACA_site2688],9.29
12,AAATTATATGAACATTGTACTTTATATATGTAAGAA [XGTACX_site1611],9.11
13,TATTTTGTTCTTTCCACACACAAATACAGATATTGT [CACACA_site6097],9.74
14,ATTTGTATATATTAATGTACACACATGCGTATGTTC [XGTACX_site7579],9.61
15,TCTTATCCATATATTACACACTATAAATAGAAATTA [CACACA_site6274],9.16
16,ACACATAATATGTGTAGTACTTTTTCTTTAACATTA [XGTACX_site1436],9.28
17,TATAAATATAAATATACACACATATATTTATTTATA [CACACA_site6890],9.34
18,AACAGTAACATTGAATGTACTTAATTTTAAGAAAAT [XGTACX_site2971],9.13
19,ATTTATTGACTATTTACACACATATTTATTATAATA [CACACA_site1624],9.69
20,TTAAAATAAAGAAAATGTACATAAATTAAAATAAAG [XGTACX_site2281],9.32
21,TTTTTTTTTTTTTTTATAGTACATTACCAAAAAAAA [CACACA_negctrl_site1197],8.5
22,GTCGTATAATTTTCAGTGCAATATTTGAATAAATGG [GTGCAC_site9404],9.35
23,ATTTATTAATTACCATGTATAAAAAATTATATAATA [CACACA_negctrl_site581],8.93

row,Sequence,gcPBM binding intensity (ln)
1,ATACAATACAAAAACACACACAAAAAAAGAAAAGGA [CACACA_site2156],10.1
2,AGCAACTCAATATATATAAGAATTGTAATATAATAT [GTGCAC_negctrl_site429],9.21
3,ATATATTTATATATTTGTACATATAATATCTTCTTT [XGTACX_site8504],9.24
4,TTTATTTTATTTTCATGTACAAAAGGGGAATAATAA [XGTACX_site2704],8.97
5,GATTTATACAAATATGTACACACTAAATATATATTA [CACACA_site455],9.43
6,TATTTATCTTTACGCACACACTTGCATGTACAAAAG [CACACA_site4753],9.57
7,ATATGTATGTATTTATTATTGTGCATTGTATTTATA [CACACA_negctrl_site664],9.57
8,AATACCCATATCTTCACACATACATAATAAATTATA [CACACA_site5367],9.4
9,TTTGAATATTCATATGCACACAAATTAATATACATA [CACACA_site8040],9.3
10,TTTATTTATGTGTGGGTGCATATACGTATGATGTAT,9.52
11,ATCTATATCTATAATACACACATAAATGGATATATA [CACACA_site6284],9.45
12,AATGTGTACGCACGCACACACAAAAAAATATATATA [CACACA_site2913],9.56
13,CAAGCCCTTCTGCTTACACACAGTAATTATTGTGCA [CACACA_site7399],9.51
14,TAAATATATTTATAAGCACACACTAATAAACCAACA [CACACA_site8022],9.83
15,TTATGCAATTTGTATTGTACATTCATGATATTAATA [XGTACX_site5070],9.05
16,AATTATAAAAAAAAAAAAAAAAAAAAAAACTAAATG [CACACA_negctrl_site1379],9.28
17,TAATAAATCAATAAATGTACATATATGTATAATTTC [XGTACX_site980],9.29
18,TTTAAAAATATATTCACACAGAAATAGTAAAAGTTA [CACACA_site4587],9.27
19,ATTATAACTAAATAAATGATATATAATATTTTATTT [XGTACX_negctrl_site234],8.91
20,TATATATAGAAACACACACACACACCCAAGCGTAGC [CACACA_site63],10.2
21,CTATATGTTAAATTCTCACACATTATTACAATTTAA [CACACA_site5979],9.29
22,ACGTATTTTTAAATATATGAATTATGTAACTTGTGA [CACACA_negctrl_site1446],9.05
23,TATACTATTTAAATGTGTACTAAAAGAATATATTAT [XGTACX_site5238],9.26

row,Sequence,gcPBM binding intensity (ln)
1,GAATATGTGATATTTTGTACATAAAAATAATATATA [XGTACX_site6398],9.14
2,AAAACATAAATACATACACACATAATATAGATTAAT [CACACA_site6205],9.99
3,TATATACAACGTTAAGCACACACAAAAAAAATTTAA [CACACA_site9013],9.73
4,CATATGTATATGACTACACACAAGGGTGTACCTATA [CACACA_site6670],9.48
5,TTAAAAATAAATTCATGTACATAATATATATATATA [XGTACX_site7908],9.11
6,TTGCATTTATTATACACACACAAAAAAATATTTATA [CACACA_site6252],9.6
7,TGTTCATTTTTAAAATGTACATATATGTTGTTCCAT [XGTACX_site8444],9.42
8,TTGACAGGAACGTTGGTGCACGTACTGTTTTTCTTT [GTGCAC_site9389],9.28
9,TTTGGATAAAAAATATGTACACACATATAGATATCT [XGTACX_site5660],9.37
10,GTATAATATTTTAATGCACACACACTAATAAAAAAA [CACACA_site8939],9.8
11,AAGTATAAATAAAGGCGTACACATGTAAATTATATT [XGTACX_site126],9.78
12,TAATAGATGTTATGAAGTACTAAATATTAAATATAA [XGTACX_site5717],9.19
13,TTTATTTTAAATGGGTGTACTCATTCCTTATGGAAG [XGTACX_site1397],8.86
14,AAAATAATTCATGTTGGTAATAAGACTCGAGGTGAA [CACACA_negctrl_site1054],9.4
15,AGTAGTCTGGAGAAAAGTACATAGTATCTGATAACC [XGTACX_site2028],9.29
16,TATTATAATATATTTGTGCACATAATATCTCCGCTA [GTGCAC_site9799],9.18
17,AAAAAGATAAAATATACATGCATATATAATATACAT [TGCATGCA_site488],9.35
18,TGCTTATATATAAATTGTACTGAAAGAATAAAATAA [XGTACX_site4025],8.97
19,AAAAAAAAAAAATACACACACATATTTATTTATATA [CACACA_site7114],9.72
20,AAAAAAGGTAAAAAAAGTACAAAAAAAAAATTAAAA [XGTACX_site6993],9.31
